Measured values as given in the supplement of paper PMC11417369.
Some of the results follow.

What follows are sequences tested on PfAP2-HC AP2 domain (GST-tagged) (assay: gcPBM binding intensity (ln(normalized median fluorescence intensity)); higher = stronger DNA binding).
Summary of the method: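 Each value is the highest Masliner-normalised natural-log median intensity across replicate spots of either orientation of a probe. The probes were primer-extended double-stranded 36-bp intergenic genomic sequences on an Agilent 4 × 180k array, alongside negative controls, exposed for 1 h to GST-tagged P. falciparum DNA-binding domains expressed in E. coli. Bound protein was picked up with Alexa488 anti-GST antibody and scanned at 488 nm.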

Row | Sequence | gcPBM binding intensity (ln)
1 | ATATATTTCCTGAGGAGTACTATGAAAGACAAAAAA [XGTACX_site5628] | 9.54
2 | ATAATTTTGATTATCACACATATATATATATATATG [CACACA_site5882] | 9.67
3 | TAAGAAAAAAGTAAATGTACAGAGAAAATTATCTAT [XGTACX_site7374] | 9.74
4 | ATTTATTACAAATGAATGCACTATATCTTAATTTTG | 9.58
5 | ACATATATATAAAGGTGTACACATATATATATATAT [XGTACX_site4779] | 9.78
6 | TTTGTCATTTTATTATGTACTCAGCATATAGGGGGG [XGTACX_site505] | 10.6
7 | AAAAAAATTCTGACTTGTACATATAAAATTTACAAA [XGTACX_site4408] | 9.33
8 | GATTTTTAAAATATCACACATAAAAAAAAAAAAAAA [CACACA_site5516] | 9.19
9 | TAATTTAATAATTAGACACACATGTGGAAAATAAAA [CACACA_site5401] | 10.2
10 | GTCAAATTTTTGTGCACACATATATAGTTATTATTA [CACACA_site2241] | 10.3
11 | TTTATATGTATTAAGTGTACACATATAATCTATCTT [XGTACX_site4922] | 9.78
12 | TAATAATATATATGAAGTACAATAACTTTTTGTTTT [XGTACX_site292] | 9.57
13 | TTTCTTTTCTCAGAAATTATTCAAATGAAAAAAAAT [TGCATGCA_negctrl_site44] | 9.22
14 | AAAATACACGCATACACACACACACCCACCCATATA [CACACA_site639] | 11.5
15 | AAAAAAAAAAAAAAAACACACACATACACCCAAAAA [CACACA_site7910] | 10.5
16 | TTACATATGGTTAGTAGTACATATATAAATGTAAAT [XGTACX_site7206] | 9.78
17 | TTTATAAAAATATACACACATACAAATATGCATATA [CACACA_site712] | 9.73
18 | GAAAAAAGGAAATAAAGAAAAAAAAAAATGAAATAT [XGTACX_negctrl_site318] | 9.49
19 | AAACATGATTATTATAGTACAATTATAATTATTATA [XGTACX_site2590] | 9.53
20 | GTCATAAAAACATATACACACTTGAAATATAAAAAT [CACACA_site5315] | 9.88
21 | GTATACACATATATATGTACTTAATTATTTTATGTC [XGTACX_site6707] | 9.76
22 | CAAAGGGAAATTAACACACACATATATATATATATA [CACACA_site2453] | 10.3
23 | CTGTTTAAAATATAAACACACATTGTTTGCTTTAGA [CACACA_site1301] | 9.66
24 | ATTTTTTTACTGCAACCATATTTTTCCCTTTTATTC [CACACA_negctrl_site1282] | 9.65
25 | TGTATATATATATAAAGTACATATAATATATATTTG [XGTACX_site5411] | 9.59
